The text below walks through data of the supplement of paper PMC4604168 (melanoma cell lines).

Some of the results follow. Many values rest on one well or one pass, so single values are uncertain.
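Note: cells treated in 1,536-well plates, then fixed and DAPI-stained, with nuclei counted from automated high-throughput microscope images.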

The test has as its system A101D. Put plainly: cell count relative to DMSO control; melanoma cells; higher = more viable cells. Conditions: library dose: standard library concentration; 72 h.
For the molecule `CCc1ccc(CCOc2ccc(CC3SC(=O)NC3=O)cc2)nc1` (stereo unspecified) [pioglitazone] + COC(=O)c1sccc1S(=O)(=O)Nc1ccc(Nc2ccccc2)cc1OC [GSK0660] (first compound 10 µM, partner dose 5 µM), the cell count is 104%.

Consider `CCc1ccc(CCOc2ccc(CC3SC(=O)NC3=O)cc2)nc1` (stereo unspecified) [pioglitazone] + CC(C)CCN1c2nc(Nc3cc(F)c(O)c(F)c3)ncc2N(C)C(=O)C1C [BID1870] (first compound 10 µM, partner dose 1 µM), for which the cell count came to 56.8%.

`CN(NC(=O)CC(=O)NN(C)C(=S)c1ccccc1)C(=S)c1ccccc1` + O=S(=O)(c1ccccc1)N(CC(F)(F)F)c1ccc(C(O)(C(F)(F)F)C(F)(F)F)cc1 [T0901317] (first compound 0.03 µM, partner dose 7 µM) came in with a cell count of 41.8%.

`CN(NC(=O)CC(=O)NN(C)C(=S)c1ccccc1)C(=S)c1ccccc1` + O=C(O)C(=O)Nc1sc2c(c1C(=O)O)CCNC2 [TCS401] (first compound 0.03 µM, partner dose 8.33333 µM) showed a cell count of 74.6%.

The molecule `NC(=O)c1ccc(N(C(N)=O)c2c(F)cccc2F)nc1-c1ccc(F)cc1F` + CCN(CC)CCCCNc1ncc2cc(-c3cc(OC)cc(OC)c3)c(NC(=O)NC(C)(C)C)nc2n1 [PD173074] (first compound 2 µM, partner dose 0.5 µM) came in with a cell count of 118%.

With `CCc1ccc(CCOc2ccc(CC3SC(=O)NC3=O)cc2)nc1` (stereo unspecified) [pioglitazone] + Oc1nc(-c2ccc(C(F)(F)F)cc2)nc2c1CSCC2 [XAV939] (first compound 10 µM, partner dose 10 µM), the cell count came out at 68.2%.
